Reference: US8961970B2, “Combination therapy” (Novartis AG, priority 2012, dated 2015)

Key:
AsPC-1 cells = assay: Cell proliferation / viability assay (CellTiter-Glo, dose matrix) in AsPC-1 cells; assay type: cell-based; conditions: AsPC-1, KRAS mutant pancreatic cancer cell line; 120 hours incubation; presence and absence of IGF1 (100 ng/ml)
Protocol: (§1) A cell proliferation assay was performed to investigate the activity of the combination of COMPOUND A and ANTIBODY A on Insulin-like Growth Factor 1 (IGF1)-induced proliferation of the KRAS mutant cell lines Miapaca-2 and AsPC-1. To evaluate the combination effect in a non-biased way, and to identify synergistic effects at different concentrations, the study was conducted using a “dose matrix” scheme (described in detail below).
(§2) COMPOUND A (10 mM) was stored in aliquots at −20° C. ANTIBODY A (0.2 mM in 1% BSA) was stored in aliquots at 4° C. Insulin-like Growth Factor-1 (IGF1; R&D System, Cat #291-G1) was reconstituted at 100 ug/mL in sterile Phosphate Buffered Saline (PBS).
(§3) The KRAS mutant, pancreatic cancer cell lines Miapaca-2 and AsPC-1 were cultured in DMEM medium (ATCC Cat #30-2002) and RPMI-1640 (ATCC Cat #30-2001) plus 10% Fetal Bovine Serum (FBS; Invitrogen Cat #10099-141) as recommended by the supplier. Cells were cultured in T-150 flasks using standard cell culture techniques and split upon reaching 80% confluency. TryPLE Express (Invitrogen #12604-013, no phenal red) was used for all cell dissociation. Cell count and viability were measured using Trypan dye exclusion with a ViCell counter (Beckman-Coulture). Cells were determined to be free of Mycoplasma using a PCR detection method (www.radil.missouri.edu). […]

Miapaca-2 cells = assay: Cell proliferation / viability assay (CellTiter-Glo, dose matrix) in Miapaca-2 cells; assay type: cell-based; conditions: Miapaca-2, KRAS mutant pancreatic cancer cell line; 120 hours incubation; presence and absence of IGF1 (100 ng/ml)
Protocol: as §1, §2, §3

B1: ANTIBODY A: IGF1R inhibitory antibody with heavy chain SEQ ID NO:1 and light chain SEQ ID NO:2, disclosed in U.S. Pat. No. 7,871,611 (antibody)
heavy: QVQLQESGPGLVKPSGTLSLTCAVSGGSISSSNWWSWVRQPPGKGLEWIGEIYHSGSTNYNPSLKSRVTISVDKSKNQFSLKLSSVTAADTAVYYCARWTGRTDAFDIWGQGTMVTVSS[sequence of human IgG1 constant region omitted]
light: [sequence of about 100 residues omitted]THWPLTFGQGTKVEIKRTVAAPSVFIFPPSDEQLKSGTASVVCLLNNFYPREAKVQWKVDNALQSGNSQESVTEQDSKDSTYSLSSTLTLSKADYEKHKVYACEVTHQGLSSPVTKSFNRGEC
modifications: Synthetic antibody A heavy chain; Synthetic antibody A light chain
single agent anti-proliferative activity (AsPC-1 cells): almost totally inactive
single agent anti-proliferative activity (Miapaca-2 cells): almost totally inactive
